# PMC4238058, “Phase transitions of multivalent proteins can promote clustering of membrane receptors” (eLife, 2014)
# B1: N-WASP BPVCA (rat, residues 183-193 fused to […]; basic, proline-rich and VCA regions) (domain or fragment)
# chain: GSEFKEKKKGKAKKKRAPPPPPPSRGGPPPPPPPPHSSGPPPPPARGRGAPPPPPSRAPTAAPPPPPPSRPGVVVPPPPPNRMYPHPPPALPSSAPSGPPPPPPLSMAGSTAPPPPPPPPPPPGPPPPPGLPSDGDHQVPASSGNKAALLDQIREGAQLKKVEQNSRPV[about 80 residues left out here]
# modifications: maleimide Alexa647 on the single cysteine (three color imaging)
# notes: extra N-terminal residues as printed; N-WASP, rat, basic region; N-WASP, rat, proline-rich and VCA regions; […] are left out of the construct; also called N-WASP Alexa647; source: E. coli BL21(DE3)T1R, purified (Ni-NTA, Source 15Q, TEV, Source 15S, SD200)
# Biological target: T1, Nck (cysteine-modified; human, residues 1-377, C139S, C232A, C266S, C340S), fluorophore-labelled (human, C139S (stands in the printed letters) | C232A (stands in the printed letters) | …, maleimide Alexa568 (imaging of association and three color imaging) or Alexa488 (FRAP) on cysteine)
# T1 construct: extra N-terminal residues printed before Met1, with the only cysteine left in the chain; Nck, human, residues 1-377 with C139S, C232A, C266S, C340S; The methods tell the expression and purification for GST-Nck; that the cysteine-modified form was made the same way is surmised; also called Nck Alexa568; Nck Alexa488; source: E. coli BL21(DE3)T1R, purified; labelled with a maleimide-conjugated …
# Test: fluorescence (TIRF) microscopy of reconstituted clusters on a supported lipid bilayer; His8-p-Nephrin Alexa488 attached to a DOPC bilayer with 1% Ni2+-NTA DOGS; Nck Alexa568 and N-WASP Alexa647 added together; three color imaging of the clusters; 25 mM Hepes pH 7.5, 150 mM NaCl, 1 mM MgCl2, 1 mM BME, 0.1% BSA
# Conditions: both partners purified
binder,measurement,value
B1,binding result,binds
